# Measurements published in the supplement of paper PMC9588766.
# Structures can show the parent of a compound that is named as a salt. ± gives the standard deviation of the averaged measurements. In all, about 2,000 compounds were measured (“cell viability relative to DMSO control (compound alone)”: median about 0.98, lowest 2% from about 0.23 on). Some of the results follow.
# System: PDC-DUC18828
# Experiment: cell viability relative to DMSO control (compound alone) (fraction); PDC-DUC18828 is a patient-derived cholangiocarcinoma cell line; higher = less growth inhibition
# Settings: 1 µM; 72 h
# Method: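 Selleck Bioactive library screen in the patient-derived FGFR2-G3BP2 fusion-positive ICC cell line PDC-DUC18828 (500 cells/well). Each compound was tested at 1 uM alone, in triplicate, for 72 h. Viability was read by CellTiter-Glo and normalised to plate DMSO controls.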
row,SMILES,cell viability
1,Cc1ccc(F)c(NC(=O)Nc2ccc(-c3cccc4[nH]nc(N)c34)cc2)c1 [Linifanib (ABT-869)],0.915 ± 0.031
2,CC(C)OC(=O)C1=CN(C(=O)c2ccc(F)c(F)c2)CC(C)(C)c2c1[nH]c1ccccc21,1.08 ± 0.053
3,CN1CCN(C(c2ccccc2)c2ccccc2)CC1 [Cyclizine 2HCl],1.02 ± 0.027
4,CC(C)(C)[N+]([O-])=Cc1ccc(S(=O)(=O)O)cc1S(=O)(=O)O,0.972 ± 0.099
5,O=C(/C=C\n1cnc(-c2cc(C(F)(F)F)cc(C(F)(F)F)c2)n1)N1CC(F)(F)C1,0.591 ± 0.057
6,Cc1ccc(NC(=O)c2cccc(C(C)(C)C#N)c2)cc1Nc1ccc2ncn(C)c(=O)c2c1,0.8757 ± 0.0044
7,OCCN(CCO)c1nc(N2CCCCC2)c2nc(N(CCO)CCO)nc(N3CCCCC3)c2n1 [Dipyridamole],0.941 ± 0.046
8,"CC[C@H](CO)Nc1nc(NCc2ccccc2)c2ncn(C(C)C)c2n1 [Roscovitine (Seliciclib,CYC202)]",1.03 ± 0.023
9,CC(C)(CO)C(O)C(=O)NCCC(=O)O [Calcium D-Panthotenate],1 ± 0.036
10,Cc1c(-c2cnccn2)ssc1=S [Oltipraz],0.958 ± 0.034
11,Cc1cccc(CC(=O)N2CCc3c2ccc(-c2cn(C)c4ncnc(N)c24)c3F)n1,0.939 ± 0.047
12,COc1ccc(-n2c(SCCCN3C(=O)c4cccc5cccc(c45)C3=O)nnc2-c2ccncc2)cc1,0.848 ± 0.035
13,C/C(=C\C(=O)OCCCCCCCCC(=O)O)C[C@@H]1OC[C@H](C[C@@H]2O[C@H]2[C@@H](C)[C@H](C)O)[C@@H](O)[C@H]1O [Mupirocin],0.995 ± 0.14
14,COc1ccc(C2=N[C@@H](c3ccc(Cl)cc3)[C@@H](c3ccc(Cl)cc3)N2C(=O)N2CCNC(=O)C2)c(OC(C)C)c1 [Nutlin-3a],1.02 ± 0.065
15,COc1ccc(C2=N[C@@H](c3ccc(Cl)cc3)[C@@H](c3ccc(Cl)cc3)N2C(=O)N2CCNC(=O)C2)c(OC(C)C)c1 [Nutlin-3],1.14 ± 0.038
16,CN/C(=N\CCSCc1nc[nH]c1C)NC#N [Cimetidine],1.02 ± 0.03
17,NC(=O)c1ccc(I)c([N+](=O)[O-])c1 [Iniparib (BSI-201)],1.07 ± 0.074
18,O=C(O)c1cc(/N=N/c2ccc(S(=O)(=O)Nc3ccccn3)cc2)ccc1O [Sulfasalazine],1.07 ± 0.016
19,c1coc(CNc2ncnc3[nH]cnc23)c1 [Kinetin],0.969 ± 0.034
20,CS(=O)(=O)c1ccc(-c2nnc(/C=C/c3nnc(-c4ccc(C#N)cc4)o3)n2-c2ccccc2Cl)nc1,0.879 ± 0.042
21,C[C@]12CCC3=C4CCC(=O)C=C4CC[C@H]3[C@@H]1CC[C@@]2(O)CC#N [Dienogest],1.04 ± 0.05
22,C[C@@H]1C[C@H]2[C@@H]3CCC4=CC(=O)C=C[C@]4(C)[C@@]3(Cl)[C@@H](O)C[C@]2(C)[C@@]1(OC(=O)c1ccco1)C(=O)CCl [Mometasone furoate],0.918 ± 0.042
23,CCOC(=O)[C@H](CCc1ccccc1)N[C@@H](C)C(=O)N1C(=O)N(C)C[C@H]1C(=O)O [Imidapril HCl],1.15 ± 0.015
24,COc1cc2ncnc(Nc3cccc(Cl)c3)c2cc1OC [AG-1478 (Tyrphostin AG-1478)],0.942 ± 0.079
25,O=c1oc2cc(O)ccc2s1 [Tioxolone],1.07 ± 0.04
26,CCn1c(-c2nonc2N)nc2c(C#CC(C)(C)O)ncc(OC[C@H]3CCCNC3)c21,0.909 ± 0.04
27,O=S(=O)(O)Oc1ccc(C(c2ccc(OS(=O)(=O)O)cc2)c2ccccn2)cc1 [Sodium Picosulfate],0.998 ± 0.013

row,SMILES,cell viability
1,CCC[C@H](N[C@H]1CCc2cc(F)cc(F)c2C1)C(=O)Nc1cn(C(C)(C)CNCC(C)(C)C)cn1,0.988 ± 0.053
2,CN1C(=O)C(Cc2c[nH]c3ccccc23)NC1=S (stereo not given) [Necrostatin-1],1.01 ± 0.021
3,Cc1cc2c(s1)Nc1ccccc1N=C2N1CCN(C)CC1 [Olanzapine],1.02 ± 0.02
4,CNC(=O)c1ccc(Nc2ncc(C(F)(F)F)c(NCc3nccnc3N(C)S(C)(=O)=O)n2)cc1,0.884 ± 0.029
5,Cc1ccc(NC(=O)C2(c3ccc4c(c3)OC(F)(F)O4)CC2)nc1-c1cccc(C(=O)O)c1 [VX-809 (Lumacaftor)],1.1 ± 0.069
6,Cn1cc(/C=C2\C(=O)Nc3cccnc32)c2ccccc21,1.03 ± 0.034
7,OCCOc1ccc(/C(=C(/CCCl)c2ccccc2)c2ccccc2)cc1 [Ospemifene],1.01 ± 0.062
8,CC(C)OC(=O)C(C)(C)Oc1ccc(C(=O)c2ccc(Cl)cc2)cc1 [Fenofibrate],1.05 ± 0.037
9,CC(=O)c1c(C)c2cnc(Nc3ccc(N4CCNCC4)cn3)nc2n(C2CCCC2)c1=O,0.757 ± 0.02
10,CCN1C[C@H](C)n2c(c(O)c3c(=O)n(Cc4ccc(F)c(Cl)c4)nc(C(=O)NC)c32)C1=O,0.995 ± 0.047
11,CNC(=O)c1cc(Oc2ccc3nc(N[C@@H]4CCCC[C@H]4O)sc3c2)ccn1,0.988 ± 0.067
12,CC(C)(C)c1ccc(S(=O)(=O)/C=C/C#N)cc1,0.616 ± 0.027
13,NC(=O)c1ccc(-c2nc(-c3ccccn3)c(-c3ccc4c(c3)OCO4)[nH]2)cc1,1.01 ± 0.042
14,Cc1cn(-c2cc(NC(=O)c3ccc(C)c(Nc4nccc(-c5cccnc5)n4)c3)cc(C(F)(F)F)c2)cn1 [Nilotinib (AMN-107)],0.949 ± 0.034
15,C[C@@H](O[C@H]1OCCN(Cc2n[nH]c(=O)[nH]2)[C@H]1c1ccc(F)cc1)c1cc(C(F)(F)F)cc(C(F)(F)F)c1 [Aprepitant],0.957 ± 0.031
16,CCCNC(=O)Nc1ccc(Oc2ncnc3cc(OC)c(OC)cc23)cc1Cl,0.99 ± 0.04
17,CCCN(CCC)CCc1cccc2c1CC(=O)N2 [Ropinirole HCl],1.01 ± 0.019
18,CC(=O)O[C@H]1C(=O)[C@@]2(C)[C@H]([C@H](OC(=O)c3ccccc3)[C@]3(O)C[C@H](OC(=O)[C@H](O)[C@@H](NC(=O)c4ccccc4)c4ccccc4)C(C)=C1C3(C)C)[C@]1(OC(C)=O)CO[C@@H]1C[C@@H]2O [Paclitaxel],0.287 ± 0.027
19,NC(=O)c1cccc(-c2cccc(OC(=O)NC3CCCCC3)c2)c1,1.01 ± 0.023
20,CN1CCC(Nc2nc(Nc3ccc(Oc4ccccc4)cc3)c3c(=O)[nH]cc(Br)c3n2)CC1,0.771 ± 0.062
21,Cn1cnc2c(F)c(Nc3ccc(Br)cc3F)c(C(=O)NOCCO)cc21,0.921 ± 0.038
22,C#Cc1cccc(Nc2ncnc3cc(OCCOC)c(OCCO)cc23)c1,1.05 ± 0.034
23,CC(C)C[C@H](NC(=O)[C@H](Cc1ccccc1)C[C@@H](O)[C@H](Cc1ccccc1)NC(=O)OC(C)(C)C)C(=O)N[C@@H](Cc1ccccc1)C(N)=O,0.973 ± 0.057
24,COc1cc2nc(N3CCCC3)nc(NCCCCCN3CCCC3)c2cc1OC,1.01 ± 0.035
25,NC(=O)c1cnccn1 [Pyrazinamide],1.01 ± 0.02
26,Nc1nc(N)c(N=O)c(OCC2CCCCC2)n1,0.892 ± 0.033
27,Nc1ccc(-c2ccc3ncc4ccc(=O)n(-c5cccc(C(F)(F)F)c5)c4c3c2)cn1 [Torin 2],0.248 ± 0.0066

row,SMILES,cell viability
1,CSc1nc2cc(Cl)c(Oc3cccc(Cl)c3Cl)cc2[nH]1 [Triclabendazole],1.03 ± 0.084
2,Cc1cnc(-c2ccccc2C(C)C)nc1NCc1ccc(-n2ccnn2)cc1,0.968 ± 0.062
3,CCCCCCCCCCCCCCCCn1cc[n+](Cc2ccccc2)c1C,0.429 ± 0.033
4,CC1(C)S[C@@H]2[C@H](NC(=O)[C@H](N)c3ccccc3)C(=O)N2[C@H]1C(=O)O [Ampicillin sodium],0.934 ± 0.035
5,CC1(C)S[C@@H]2[C@H](NC(=O)[C@H](N)c3ccccc3)C(=O)N2[C@H]1C(=O)O [Ampicillin Trihydrate],1.02 ± 0.075
6,Cc1ccccc1C(C(=O)NC1CCCCC1)N(C(=O)Cn1ccnc1C)c1cccc(F)c1 (stereo not given),1.04 ± 0.033
7,O=C(O)c1cc(=O)[nH]c(=O)[nH]1 [Orotic acid (6-Carboxyuracil)],0.988 ± 0.017
8,Oc1ccc(-c2nc(-c3ccc(F)cc3)c(-c3ccncc3)[nH]2)cc1,0.989 ± 0.016
9,O=C(Nc1ccc(S(=O)(=O)Nc2ccccc2Cl)c(Cl)c1)c1ccccn1,1.03 ± 0.061
10,Cc1ccc(C(=O)Nc2ccc(CN3CCN(C)CC3)c(C(F)(F)F)c2)cc1C#Cc1cnc2[nH]ncc2c1,0.295 ± 0.0066
11,O=C(NC[C@H](O)CO)c1ccncc1Nc1ccc(I)cc1F,0.969 ± 0.024
12,Cc1ccc(-n2nc(C(C)(C)C)cc2NC(=O)NCc2cc(F)ccc2Oc2ccc3c(cnn3CCO)c2)cc1 [Pexmetinib (ARRY-614)],0.847 ± 0.033
13,Cc1ncc([N+](=O)[O-])n1CC(C)O (stereo not given) [Secnidazole],1.05 ± 0.052
14,OCCn1cc(-c2cnc3nnn(Cc4ccc5ncccc5c4)c3n2)cn1,1.03 ± 0.062
15,C[C@]12CCC(=O)C=C1[C@@H]1C[C@@H]1[C@H]1[C@@H]3[C@@H]4C[C@@H]4[C@@]4(CCC(=O)O4)[C@@]3(C)CC[C@@H]12 [Drospirenone],0.931 ± 0.019
16,COc1ccc2cc([C@H](C)C(=O)O)ccc2c1 [Naproxen],1.097 ± 0.005
17,N#Cc1cc(CN2CCC(Nc3ncnc4sc(Cl)cc34)CC2)ccc1F,0.976 ± 0.019
18,O=C1NC(=O)/C(=C/c2ccc3nccc(-c4ccncc4)c3c2)S1,0.991 ± 0.051
19,CCCc1ncc(C[n+]2ccccc2C)c(N)n1 [Amprolium HCl],1.03 ± 0.017
20,OC[C@H]1OC(O)[C@H](O)[C@@H](O)[C@@H]1O (stereo not given in full) [Dextrose],1.07 ± 0.098
21,O=C1NC(=O)C(c2ccccc2[N+](=O)[O-])=C1Nc1ccc(O)c(Cl)c1,1.03 ± 0.048
22,CC(C(=O)O)c1cccc(Oc2ccccc2)c1 (stereo not given) [Fenoprofen calcium hydrate],1.01 ± 0.047
23,CC(C(=O)O)c1cccc(Oc2ccccc2)c1 (stereo not given) [Fenoprofen Calcium],0.987 ± 0.073
24,COCCOc1nc(-c2ccc(Cl)c(Cl)c2)n(-c2ccc(NC(=O)CCl)cc2)n1 [MI-2 (MALT1 inhibitor)],0.695 ± 0.067
25,OC[C@@H](O)[C@@H](O)[C@H](O)[C@H](O)CO [D-Mannitol],0.984 ± 0.035
26,C[C@H](NCc1ccc(OCc2cccc(F)c2)cc1)C(N)=O [Safinamide Mesylate],1.06 ± 0.045
